Data published in the supplement of paper PMC3334620.
In all, about 33,000 sequences were measured (“E-score (-0.5 to 0.5)”: median about -0.056, highest 2% from about 0.38 on). The list shows a part of the results.

target: Stb4 (UniProt P50104); assay: PBM E-score (8-mer binding enrichment) (E-score (-0.5 to 0.5)); higher = stronger / more preferred TF binding; most listed sequences are background and not binding sites; conditions: protein concentration: 200 nM; construct: GST-DNA-binding domain
Method in brief: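 Full-length yeast transcription factors or their DNA-binding domains, GST-tagged and expressed with PURExpress, were applied at about 100-200 nM to universal all-10-mer Agilent arrays. These arrays had been made double-stranded by primer extension on fresh or once-stripped slides. Detection used fluorescent anti-GST, normalisation used masliner, and E-scores for ungapped eight-base words pooled with reverse complements came from the Universal PBM Analysis Suite.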

Sequence	PBM E-score
GGTATGGA	0.087
CATCACGG	0.0595
ACGCGTAG	-0.123
GGATCTAC	0.0795
ATACAAGA	-0.166
AACTGACC	0.118
CGATGTAA	-0.0849
CCCAATGA	-0.164
AAGGTGCT	-0.134
TCGAAAGA	-0.317
GACTAGGC	-0.159
CTAAGCAC	-0.212
CCCCGTTA	-0.0561
CAGCCCAG	-0.109
AGGAGGTC	-0.159
AACGCTCT	-0.242
AACTACGG	0.143
CGATCTTC	0.215
GTACTGAC	-0.0527
ACATACCT	-0.163
GCGATTCC	0.109
CTTACAAG	-0.186
AAATTTGA	-0.101
GCGGGTCA	0.0978
AGCCGTTA	0.183

Sequence	PBM E-score
CGGGCAGC	0.211
CACCCGCG	0.262
CTAGTCAG	-0.31
GCCGCGGA	0.241
GAGACTAA	0.101
AGATGGTC	-0.121
CAGAGTCA	-0.1
TATTCCCA	0.0571
CGGATCCG	0.462
GGCCCTAA	-0.0555
TATAGGGA	0.00271
ACTCCCCA	-0.149
CGTAATCA	-0.16
AGTGTCTA	-0.261
CCGCCCCA	0.306
ATGGGTAA	0.0979
GTGGCAAC	-0.0139
CTTACTCC	0.00997
CAACACCG	0.0357
CTATAGTC	-0.255
AAGAGTAA	-0.0424
ACTTACAA	-0.131
AACCGTAT	-0.0324
ATTCCTCG	0.2
CCTAAGGA	-0.0356

Sequence	PBM E-score
AGGCGACT	-0.0702
CCCTATGC	-0.0929
ACTTCGGA	0.458
AGAAAGCG	-0.106
GAGCCCGA	0.156
ACCGCAGT	0.00862
ACCGACCC	0.191
AAAAGGAC	-0.0912
AACCACTG	-0.0289
CCGAACCA	0.356
TCGGAGCA	0.373
AAATGCCG	0.36
CCCTCTAC	-0.308
AATGATTC	-0.113
AGCCCGCA	-0.162
ACCTGAGA	-0.222
CAAACGGC	0.0298
AAGCTGAC	-0.102
CCGGCATC	0.28
CCTGTGAC	-0.315
ATTGAAGG	-0.166
AGCGTAGC	-0.156
GAGATTGC	0.063
CTCCGCCC	0.166
CCTTCGTC	-0.109

Sequence	PBM E-score
GCAGAGTA	-0.0468
AATAGCGG	0.0554
GAGTATTA	-0.0893
CACTCCTC	-0.158
AGCTCCGG	0.301
CTACGACC	-0.232
CCGGTCTA	-0.00194
AACCATTA	-0.0195
AGGAGCTC	-0.0923
AGACCATC	-0.15
GAGGATGA	-0.136
CAGGTCTA	0.00049
CACGAGCG	-0.199
GGACCCAC	0.0405
GACAAAGA	-0.0537
GGCACAAA	0.104
CAGTGTAA	-0.0547
AAGCGGCC	0.0516
CGGCCTGA	0.0862
CCGTACCG	0.304
ATTTAGAA	0.00443
CTGGTCAA	-0.155
CTAGACCA	-0.274
ACGGAAGA	0.349
ATATTATA	-0.15

Sequence	PBM E-score
ATACACCG	0.23
CGCGAAAA	0.0356
CCTAATCG	-0.0192
CTTTTGAA	-0.00939
CTTGGAGA	-0.109
AAGTCTCA	-0.152
AACGCATC	0.0383
CTAATGAA	0.0956
AAAGATAG	-0.105
AGTTAAGC	0.0954
ACTAACAC	-0.0543
AGTCTCGA	-0.0187
CTTCTCCC	0.0168
GTCCAGCA	-0.237
CTGATACC	-0.104
CGGCGCTC	0.156
TCGCGTAA	0.0292
AGAAATCG	0.0992
GACTCATA	-0.0793
ATAATACG	0.144
ACATACTG	-0.0636
CACTCACG	-0.022
CAGGCCCG	0.172
AACGGAAA	0.393
CGGTGCTC	0.116

Sequence	PBM E-score
TCCGTAGA	0.147
TAAACCTA	-0.00181
CAGGCTTA	-0.107
CTGGGTAC	-0.105
AGTGGAAC	-0.0398
AGGTCACT	-0.249
ACGGTAGG	-0.0326
AGCGAACC	-0.00121
CGACCCCA	0.00659
CTCAACCA	-0.0445
ACGGTTGG	0.065
ACTAGGCT	-0.317
CACGCACC	0.00779
ACCAGTAC	-0.193
CTGTCTGC	-0.144
CCTTCTAG	-0.301
AGGCTAGA	-0.297
ATTCGCTA	-0.197
AAACCGTA	0.0401
AATCATCC	0.149
CATACGGC	0.0817
GATATAGA	0.193
AGGGCGCC	-0.105
CTCATCAA	-0.0454
ATGATCTA	-0.115

Sequence	PBM E-score
CGATAGCA	-0.00415
AATGAACG	-0.231
AATACGAG	-0.0662
AACCATCC	0.251
AACCTACC	0.179
CAGGCTCC	0.0435
AACAAAAT	-0.114
AGCTAGGG	-0.009
ACTCTCGA	-0.214
CAGCCCAC	-0.139
GCGGGGCC	0.146
ACAGTCCG	0.0488
ACCCTATG	-0.213
CGTATTAA	-0.105
TATAAAGA	-0.203
CCCGGCCC	0.316
ACTAAGTC	-0.0624
ACTATCGC	-0.192
AAAGCTGT	-0.123
GCCAATAA	0.0672
CTTCTTAC	0.0471
GCATGGCC	-0.0486
